# According to the supplement of paper PMC12889115:
# Some of the results follow. Many values rest on one well or one pass, so single values are uncertain.
# Tested on: Salmonella enterica serovar Typhimurium SL1344
# Assay: bacterial growth OD600 after 18 h in MHB with 0.5 µg/mL polymyxin B; higher = more bacterial growth (less inhibition)
# Conditions: 25 µM; polymyxin B 0.5 µg/mL; system: broth
# Experimental: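 Secondary screen of the 553 primary hits at 25 µM. (i) S. Typhimurium SL1344 grown in Mueller-Hinton broth with 0.5 µg/mL polymyxin B, OD600 read after 18 h. (ii) SAFIRE assay: RAW 264.7 macrophages infected with S. Typhimurium sifB::gfp (MOI 30); compound added 2 h post-infection; cells fixed at 18 h; GFP-positive pixel fraction per macrophage imaged by confocal microscopy and expressed as % of DMSO control.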
# 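Also: polymyxin B level opens the outer membrane while sparing the inner membrane, with novobiocin wells as reference growth inhibitor.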
row,SMILES,bacterial growth OD600
1,CCOC(=O)C1(Cc2ccccc2Cl)CCN(C(=O)c2ccsc2)CC1,0.005
2,COCc1noc(-c2ccc(N3CCCC3c3nccs3)nc2)n1 (configuration not stated),0.666
3,O=C(c1cnn2cccnc12)N(Cc1ccncc1)Cc1cccc(OCCc2ccc(F)cc2)c1,-0.001
4,CC(C)C(=O)N(C)C(Cc1ccccc1)C1CCN(C(=O)/C=C/c2cc(F)ccc2F)CC1 (configuration not stated),0.347
5,O=C(NC1Cc2ccccc2C1)c1coc(COc2cccc(F)c2)n1,-0.003
6,CCCCn1c(CN2CCC(C(O)CC)CC2)cnc1S(=O)(=O)CCCC(C)C (configuration not stated),0.393
7,Cc1cc(C)n(CCC(=O)N(Cc2ccncc2)Cc2cccc(OCCc3ccc(F)cc3)c2)n1,0.001
